Measured values: paper PMC4336329 (PLoS ONE, 2015)
Out of some 310,000 compounds screened, about 2,200 (0.71%) showed an effect of 50% or more. Effects have a minus sign here. This is one part of the list.

The molecules below were run against human ether-à-go-go-related gene (hERG) potassium channel (human, UniProt Q12809) (assay: primary screen, population patch clamp on CHO cells stably expressing hERG).
human ether-à-go-go-related gene (hERG) potassium channel, sequence (Q12809 whole entry, looked up): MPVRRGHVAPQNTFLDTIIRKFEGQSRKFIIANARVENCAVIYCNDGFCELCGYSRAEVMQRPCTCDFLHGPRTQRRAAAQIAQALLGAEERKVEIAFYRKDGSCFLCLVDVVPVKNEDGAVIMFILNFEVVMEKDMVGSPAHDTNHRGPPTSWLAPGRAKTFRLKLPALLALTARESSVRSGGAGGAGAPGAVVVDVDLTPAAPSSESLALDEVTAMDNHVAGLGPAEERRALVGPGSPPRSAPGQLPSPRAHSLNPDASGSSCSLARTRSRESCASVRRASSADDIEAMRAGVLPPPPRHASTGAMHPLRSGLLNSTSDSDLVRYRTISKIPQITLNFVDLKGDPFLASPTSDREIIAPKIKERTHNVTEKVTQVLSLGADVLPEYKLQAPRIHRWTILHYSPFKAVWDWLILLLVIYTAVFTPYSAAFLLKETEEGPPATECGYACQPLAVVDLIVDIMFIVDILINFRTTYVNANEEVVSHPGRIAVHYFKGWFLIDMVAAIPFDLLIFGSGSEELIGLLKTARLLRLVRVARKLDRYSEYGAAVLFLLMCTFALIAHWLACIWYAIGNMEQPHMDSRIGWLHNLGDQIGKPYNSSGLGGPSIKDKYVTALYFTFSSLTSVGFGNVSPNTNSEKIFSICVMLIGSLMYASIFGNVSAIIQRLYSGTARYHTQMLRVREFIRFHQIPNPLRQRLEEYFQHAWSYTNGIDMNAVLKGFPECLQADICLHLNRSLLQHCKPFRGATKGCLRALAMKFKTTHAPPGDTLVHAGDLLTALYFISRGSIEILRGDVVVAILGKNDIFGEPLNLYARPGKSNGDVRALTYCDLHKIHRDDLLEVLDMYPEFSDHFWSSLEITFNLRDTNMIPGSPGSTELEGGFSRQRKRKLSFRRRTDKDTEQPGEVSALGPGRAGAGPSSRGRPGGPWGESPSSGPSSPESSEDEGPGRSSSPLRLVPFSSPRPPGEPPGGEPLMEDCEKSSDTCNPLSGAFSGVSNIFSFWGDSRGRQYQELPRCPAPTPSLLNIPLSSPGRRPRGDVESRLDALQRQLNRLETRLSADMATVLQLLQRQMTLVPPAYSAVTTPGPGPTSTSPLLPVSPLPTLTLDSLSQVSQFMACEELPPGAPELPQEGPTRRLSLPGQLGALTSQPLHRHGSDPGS

| SMILES | hERG current change (%, negative = inhibition) at 1uM |
| --- | --- |
| COc1cccc(C(=O)CSc2nnc(CNc3nc(-c4ccccc4)cs3)n2C)c1 | 11.1% |
| COc1ccc(S(=O)(=O)N2CCCC(C(=O)NCc3cccnc3)C2)cc1OC (stereo not shown) | -6.91% |
| COc1ccc(CN2CCNC(=O)C2CC(=O)N(C)Cc2nc(C)cs2)c(OC)c1 (stereo not shown) | 10.9% |
| COc1ccc(S(=O)(=O)Nc2nc(C(F)(F)F)cs2)cc1 | 11.1% |
| O=C(CCc1c[nH]c2ccccc12)NCc1ccc2c(c1)OCO2 | 3.27% |
| COc1ccc(N=C2SC(CC(=O)Nc3ccccc3F)C(=O)N2Cc2ccco2)cc1 (stereo not shown) | 11.8% |
| Cc1ccc(CN2CCNC(=O)C2CC(=O)N(Cc2c(C)nn(C)c2C)C2CC2)o1 (stereo not shown) | 9.37% |
| CC12CCC(=O)N1C(C(=O)NNC(=O)COc1cccc(C(F)(F)F)c1)CS2 (stereo not shown) | 15.2% |
| O=C(NC(=S)NNC(=O)c1ccccc1O)c1ccc([N+](=O)[O-])cc1 | 5.78% |
| CC1CCCN(C(=O)CN(C)S(=O)(=O)c2ccc3c(c2)c(=O)n(C)c(=O)n3C)C1 (stereo not shown) | 4.82% |
| CCc1noc(C)c1C(=O)N1CCCC(CCC(=O)NCc2ccc(F)c(F)c2)C1 (stereo not shown) | -2.87% |
| CC1(C)Cc2c(ccc3ccccc23)-c2nnc(-c3cccnc3)n21 | 2.73% |
| CC(C)C(NC(=O)C1CCCCC1)C(=O)NC1=NCCS1 (stereo not shown) | 13% |
| Cc1c(NC(=O)CSc2nnc(-c3cccc(Cl)c3)o2)c(=O)n(-c2ccccc2)n1C | 9.8% |
| COc1ccc(C(=O)COC(=O)CCc2nc3ccccc3[nH]c2=O)cc1Br | 15.7% |
| COC(=O)c1sccc1-n1cccc1C(=O)NCc1ccccc1 | 4.36% |
| CNC(=S)Nc1ccc(OC(F)(F)F)cc1 | 11% |
| C=CCNC(=S)NC(=O)c1oc2ccccc2c1C | 13.7% |
| CC(C(=O)N(C)C1CCCCC1)N1CCC(C(N)=O)CC1 (stereo not shown) | 15.1% |
| Nc1ccc(-c2cc(N)n(-c3ccccc3)n2)cc1 | 3.03% |
| O=C(N/C(=C/c1cn(-c2ccccc2)nc1-c1ccccc1)C(=O)N1CCOCC1)c1ccccc1 | 3.27% |
| COc1ccccc1Nc1nc(N)nc(CSC(=S)N2CCN(c3ccccc3)CC2)n1 | 6.01% |

| SMILES | hERG current change (%, negative = inhibition) at 1uM |
| --- | --- |
| CCCn1c(C2CCCN2c2nc(-c3ccc(OC)cc3)cs2)nc2ccccc21 (stereo not shown) | 17.7% |
| CC(=O)Nc1ccc(S(=O)(=O)N(CCO)Cc2ccccc2)cc1 | 11.8% |
| O=C(NC(=S)NCCc1ccc(Cl)cc1)c1ccco1 | 19% |
| COC(=O)C1=C(c2c(C)noc2C)C[C@@H]2CC[C@H]1N2C(=O)N1CCC(C)CC1 | 0.981% |
| COc1cc(CNC(C)C23CC4CC(CC(C4)C2)C3)ccc1OCC(=O)NC(C)(C)C.Cl (stereo not shown) | 14.3% |
| Cc1c(C)c2ccc(OCC(=O)NC(Cc3ccc(Cl)cc3)C(=O)O)cc2oc1=O (stereo not shown) | 9.54% |
| Cc1cccc2[nH]c(CN(C)Cc3nc(CC4CC4)no3)nc12 | 4.77% |
| C#CCOCCOCCOCCNc1nc(N2CCN(C(=O)[C@H]([C@@H](C)CC)n3cc(CCCC[NH3+])nn3)CC2)nc(N2CCN(C(=O)[C@H](C)n3cc(CCC(=O)O)nn3)CC2)n1.[Cl-] | 11% |
| Nc1cc(C(=O)OCC(=O)N2CCCC2=O)ccc1Cl | 13.8% |
| CC(=O)c1sccc1NC(=O)c1ccccc1C(=O)O | 15.8% |
| COc1cccc(CC(=O)OCC(=O)Nc2nnc(-c3ccccc3)o2)c1 | 10.2% |
| CCOc1ccc(NC(=O)CN(C)C(=O)c2ccc3nc(CC)c(CC)nc3c2)cc1OCC | -8.18% |
| NC(=O)CC(NC(=O)Cc1cccc2ccccc12)c1ccc(N2CCCCCC2)c([N+](=O)[O-])c1 (stereo not shown) | 8.91% |
| NC1=NC(c2ccccc2Cl)n2c(nc3ccccc32)N1 (stereo not shown) | -0.85% |
| CCOC(=O)Cc1csc(NC(=O)/C=C\c2ccccc2Cl)n1 | 7.16% |
| O=C(N/N=C/c1ccc(N2CCOCC2)cc1)c1cccs1 | 13.2% |
| C/C(=N/NC(=O)CC(=O)N/N=C(\C)c1ccc([N+](=O)[O-])cc1)c1ccc([N+](=O)[O-])cc1 | 9.94% |
| CCn1nnc(NC(=O)c2ccc(-c3ccc(Cl)cc3)o2)n1 | -15.1% |
| Cn1c(=O)n(-c2ccccc2)c(=O)c2c3c(sc21)COC(C)(C)C3 | 8.65% |
| O=C1c2c(O)cc(O)cc2O[C@@]12c1c(cc(O)c3c1O[C@H](c1ccc(O)cc1)[C@@H](O)C3)O[C@@H]2c1ccc(O)cc1 | 20.7% |
| COc1ccc(Oc2nccc(-c3ccc(F)cc3)c2C#N)cc1 | 5.58% |
| CCN(CC(=O)NCc1cccs1)C(=O)/C=C/c1cc(Br)ccc1OC(F)F | -3.64% |

| SMILES | hERG current change (%, negative = inhibition) at 1uM |
| --- | --- |
| CCOc1cc2[nH]c(=S)n(Cc3ccc(C(=O)NCC(OC)OC)cc3)c(=O)c2cc1OCC | 6.97% |
| O=S(=O)(NCc1ccc(F)cc1)c1ccccc1Br | 3.72% |
| COc1ccc(C(=O)Oc2ccc3c(C)cc(=O)oc3c2C(C)=O)cc1 | 0.652% |
| O=C(CSc1nnnn1-c1ccccc1)Nc1nsc(-c2ccccc2)n1 | -1.62% |
| NNC(=O)CCCNc1ncc(C(F)(F)F)cc1Cl | 6.83% |
| CC(C)c1nnc(NC(=O)C2CCN(C(=O)Nc3ccc(Cl)cc3)CC2)s1 | 12.1% |
| CCc1ccccc1NC(=O)CNCC(=O)Nc1ccccc1CC | 11.1% |
| O=C(N/N=C/c1ccc(Br)cc1)c1cc[n+](Cc2ccccc2)cc1.[Cl-] | 7.9% |
| COc1ccc(OC)c(C(=O)c2coc3ccc(O)cc23)c1 | 1.49% |
| COc1ccccc1-c1nnc(-c2ccc(C)cc2)o1 | -3.53% |
| COc1ccc(C2CC(c3ccccc3)=NN2C(=O)CSc2ncn[nH]2)cc1 (stereo not shown) | 0.96% |
| Oc1ccc(Br)cc1CNn1cnnc1 | 16.9% |
| COC(=O)CSc1nnc2n(-c3ccc(OC)cc3)c(=O)c3c4c(sc3n12)CCCCC4 | 10.9% |
| CCCOC(=O)Nc1sc2c(c1C(=O)OCC)CCC2 | -7.31% |
| CCC(C)N(C(=O)COC(=O)Cc1n[nH]c(=O)c2ccccc12)C1CCS(=O)(=O)C1 (stereo not shown) | 13.3% |
| N#Cc1c(NC(=O)CCCN2C(=O)c3ccccc3C2=O)oc(-c2ccccc2)c1-c1ccccc1 | -0.65% |
| CCOc1ccc2nc(SCC(=O)N3CCCc4ccccc43)sc2c1 | -6.66% |
| COc1ccc2nc(NC(=O)C3COc4ccccc4O3)sc2c1 (stereo not shown) | 11.2% |
| CC1=CC(C)(C)NC(=S)N1c1ccc2ccccc2c1 | 0.181% |
| Cc1ccc(S(=O)(=O)N2CCN(c3cnn(-c4ccccc4)c(=O)c3Cl)CC2)cc1 | 5.42% |
| C#CCNc1c2c(nc3nnnn13)CCCC2 | 1.91% |
| CCc1ccccc1NC(=O)CCS(=O)(=O)c1ccc(Br)cc1 | 12.9% |

| SMILES | hERG current change (%, negative = inhibition) at 1uM |
| --- | --- |
| O=C(CCCn1c(=O)c2cccn2c2cccnc21)NCCc1ccc(Cl)cc1 | 3.34% |
| Cc1ccc2nc(-c3ccccc3)cc(C(=O)N3CCc4ccccc4C3)c2c1 | 7.62% |
| CC(C)(C)c1ccc(C(=O)NNc2ccc(F)cc2F)cc1 | 11.9% |
| O=C(NCCNc1ccc([N+](=O)[O-])cc1)c1cc(F)c(F)cc1Cl | -8.81% |
| CC1(C)C(C=C(Cl)Cl)C1C(=O)N1CCN(Cc2ccccc2)CC1 (stereo not shown) | -12.2% |
| O=C(O)c1ccccc1N(c1ccccc1)c1ccccc1 | 11.3% |
| CCOC(=O)C1(C)NC(c2ccco2)C2C(=O)N(CC)C(=O)C21 (stereo not shown) | 12.5% |
| O=C(COC(=O)C1CCN(C(=O)c2ccc(Cl)cc2)CC1)Nc1ccccc1F | -11.5% |
| Cc1cc(S(=O)(=O)c2cc3ccc(O)c(C)c3oc2=O)ccc1F | 14.4% |
| Cc1ccc(C)c(C(=O)CCC(=O)Nc2cccnc2)c1 | 12.1% |
| CCCNC(=O)C(Cc1ccccc1C)NC(=O)c1ccc(C(F)(F)F)cc1 (stereo not shown) | 17% |
| C/C(=C1\SC(N2CCOCC2)=NC1=O)c1ccc(C)cc1 | 5.49% |
| COCCN(Cc1nc(-c2ccc(C(F)(F)F)cc2)no1)C(C)C | 7.53% |
| CN(CCOC(=O)C1c2ccccc2Oc2ccccc21)C(C)(C)C.Cl | 5.23% |
| O=C(CN(C(=O)Cn1nnc(-c2ccc(F)cc2)n1)c1cccc(F)c1)NC1CCCC1 | 19% |
| COC(=O)c1ccc2c(c1)N(C)C(=O)CS2 | -4.86% |
| CCc1ccccc1NC(=O)CNC(=O)c1cn(Cc2ccccc2)nc1-c1cccnc1 | 6.27% |
| O=C(Nc1nccs1)c1nc[nH]c1C(=O)NCc1ccccc1 | 6.13% |
| COc1cc(C(=O)Oc2ccc(C(=S)N3CCOCC3)cc2)cc(OC)c1OC | 13.8% |
